# Data published in publication PMC6919601, “Identification of Plasmodium dipeptidyl aminopeptidase allosteric inhibitors by high throughput screening” (PLoS ONE, 2019).
# “And” between values parts separate entries of the source, which are not always exact repeats. Equal entries are not always repeated. Screen size: about 110,000 compounds; about 230 (0.21%) showed an effect of 50% or more. Some of the results follow.
# Biological target: DPAP1 (Plasmodium falciparum, UniProt Q8IIJ9)
# Assay: primary screen, percent inhibition; read by cleavage of a fluorogenic dipeptide substrate; higher = more effect of the substance
# Set-up: species or system P. falciparum D10 trophozoite lysates; single well
# 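Note: 30 min substrate incubation versus DMSO and 10 µM JCP410 controls.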
# Sequence of DPAP1 (Q8IIJ9 whole entry, looked up): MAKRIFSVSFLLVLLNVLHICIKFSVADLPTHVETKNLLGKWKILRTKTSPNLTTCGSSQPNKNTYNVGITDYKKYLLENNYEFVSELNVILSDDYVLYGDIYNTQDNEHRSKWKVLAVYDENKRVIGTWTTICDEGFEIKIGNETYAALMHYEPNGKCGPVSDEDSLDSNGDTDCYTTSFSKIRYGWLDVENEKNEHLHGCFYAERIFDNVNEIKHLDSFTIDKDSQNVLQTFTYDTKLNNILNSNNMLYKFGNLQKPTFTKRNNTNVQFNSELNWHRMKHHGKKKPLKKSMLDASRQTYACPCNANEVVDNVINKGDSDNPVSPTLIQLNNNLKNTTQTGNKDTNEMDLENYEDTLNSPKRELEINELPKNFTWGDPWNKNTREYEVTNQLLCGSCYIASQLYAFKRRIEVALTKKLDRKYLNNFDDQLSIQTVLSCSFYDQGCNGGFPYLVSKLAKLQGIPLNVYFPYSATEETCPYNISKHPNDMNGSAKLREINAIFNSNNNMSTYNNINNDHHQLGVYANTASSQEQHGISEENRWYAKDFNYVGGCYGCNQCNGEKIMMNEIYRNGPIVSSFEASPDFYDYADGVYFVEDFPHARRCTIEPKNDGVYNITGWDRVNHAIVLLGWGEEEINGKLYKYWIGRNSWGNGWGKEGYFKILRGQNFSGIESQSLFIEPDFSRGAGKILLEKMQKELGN
row,Structure (SMILES),% Inhibition @ 10 uM
1,CC(C)CC(C(=O)O)N1C(=O)c2ccc(C(=O)O)cc2C1=O (stereo not shown),-2.6%
2,CSc1ncc(C(=O)NC(C)c2ccccc2)c(C(F)(F)F)n1 (stereo not shown),-3.72%
3,O=C(NCc1cccnc1)C1c2ccccc2C(=O)N1Cc1ccco1 (stereo not shown),4.63%
4,COc1ccc(/C=C2/C(=O)N(c3ccccc3)N=C2C)cc1,-2.59%
5,CC(C)(C)C(=O)/N=C1/SC2CS(=O)(=O)CC2N1Cc1ccccc1 (stereo not shown),-2.92%
6,Cn1c(=O)c2c(-c3ccccc3)n3c4ccccc4nnc3c2n(C)c1=O,-2.65%
7,CC(C)(O)C#CC1(C)CCCC(C)(C)O1 (stereo not shown),1.63%
8,COc1ccccc1-c1nc2s/c(=C\c3ccc(-c4ccc(C(C)=O)cc4)o3)c(=O)n2n1,8.44%
9,CCC(C)NC(=O)c1ccccc1NC(=O)COc1ccccc1OC (stereo not shown),2.06%
10,CSc1ccc(C2C3=C(O)CC(C)(C)CC3=NC3=C2C(=O)CC(C)(C)C3)cc1 (stereo not shown),-2.54%
11,COc1cccc(/C=C/C2=NN(c3cccc(Cl)c3)C(c3cccc(OC)c3OC)C2)c1OC (stereo not shown),2.38%
12,N#CC1=C(N)OC2=C(C(=O)CCC2)C12C(=O)Nc1cc(Cl)ccc12 (stereo not shown),0.317%
13,Cc1c(C(=O)N2CCOCC2)oc2c1-c1nn(CC(=O)NCc3ccccc3Cl)cc1CC2,-3.46%
14,O=C1c2ccccc2C(=O)N1CNc1cccc(C(F)(F)F)c1,4.8%
15,CCCCOC(=O)Nc1ccc(S(=O)(=O)Nc2ncccn2)cc1,2.95%
16,CCOc1ccccc1-c1cc(C(=O)O)c2c(-c3ccccc3)[nH]nc2n1,1.09%
17,O=S(=O)(c1ccc(F)cc1)N1CCC(c2nnnn2-c2ccccc2)CC1,-2.84%
18,COc1ccc2sc(C)[n+](CCC(=O)O)c2c1,-3.5%
19,OCCN(CCO)Cc1c(Cl)cccc1Cl,6.32%
20,CCN1C(=O)C2NN=C(C(=O)OC)C2C1=O (stereo not shown),-9.37%
21,COc1ccc(S(=O)(=O)Cc2ccc(C(=O)N3CCN(C(=O)c4ccco4)CC3)o2)cc1,-4.53%
22,CCCOc1ccc(Cl)cc1/C=C1/C(=O)ON=C1C,-0.386%
23,CCC1CCCCN1CCCNC(=O)CNC(=O)Cn1ccc2ccccc2c1=O (stereo not shown),-7.33%
24,O=C(CN1C(=O)C2C3c4ccccc4C(c4ccccc43)C2C1=O)NC1CCCCC1 (stereo not shown),-7.15%
25,CCOc1ccc(C(=O)Nc2nc3ccc(S(C)(=O)=O)cc3s2)cc1,-2.53%

row,Structure (SMILES),% Inhibition @ 10 uM
1,COCCNS(=O)(=O)c1ccc2oc(=O)c3ncn(C)c3c2c1,-7.48%
2,CCOc1cc(/C=C2\SC(=N)N(c3nonc3N)C2=O)ccc1O,4.81%
3,Cn1c(=O)c2ncn(CC(=O)N3CCN(Cc4ccccc4)CC3)c2n(C)c1=O,-8.09%
4,CC(C)CCP(=O)(O)c1ccccc1,-5.94%
5,C/C(=C\c1ccccc1)CN1CCN(c2ccccc2F)CC1,-3.57%
6,Cn1c(SCC(=O)NCCO)nc2ccccc2c1=O,-6.74%
7,CCn1c(SCc2c(C)ccc3ccccc23)nc2c1c(=O)n(C)c(=O)n2C,3.25%
8,CCOc1ccc(C2Nn3c(nnc3-c3ccccc3)SC2C(=O)N(CC)CC)cc1 (stereo not shown),0.0289%
9,CCOC(=O)c1cc(-c2ccc(C)cc2)n(CC(=O)NC(C)CC)c1C (stereo not shown),4.88%
10,OCCNCc1ccccc1OCc1ccc(Cl)cc1Cl,-4.97%
11,O=[N+]([O-])c1c(NCCO)cc(Cl)c2nonc12,5.66%
12,NS(=O)(=O)c1ccc(CCNC(=O)C2CCCN(S(=O)(=O)N3CCCCC3)C2)cc1 (stereo not shown),-1.38%
13,COc1ccc(C(=O)Nc2ccncc2)c(OC)c1,-4.24%
14,O=S(=O)(Nc1nc2ccccc2nc1Nc1ccccc1)c1ccccc1,-0.128%
15,COc1cccc(-c2nnc3sc(NC(=O)OCC(C)C)nn23)c1,-2.48%
16,C=CCc1ccccc1OCC(O)CN1CCN(CCO)CC1 (stereo not shown),4.67%
17,CCOCCCNC(=O)C(C)n1c2ccccc2c2cnn(C)c(=O)c21 (stereo not shown),-3.79%
18,CCN1CCCC1CNC(=O)CCc1nc(-c2ccc(OC)cc2)no1 (stereo not shown),-0.704%
19,CCOC(=O)C1=C(c2ccccc2)N=C(S)NC1c1ccc(Cl)cc1 (stereo not shown),-0.357%
20,O=C1NC(=S)NC(=O)C1=Cc1ccncc1,-4.08%
21,NC(=O)C12CCCC(Br)(CCC1)C2,6.4%
22,NC(=O)C1CCN(C(=O)Cn2ncc3c4ccccc4n(Cc4ccccc4F)c3c2=O)CC1,-1.58%
23,COc1ccc(-n2c3c(c(=O)[nH]c2=O)C(NC(=O)c2ccco2)(C(F)(F)F)C(=O)N3)cc1 (stereo not shown),1.93%
24,O=C(O)CNC(=O)c1ccc2c(c1)C1C=CCC1C(c1ccccc1Cl)N2 (stereo not shown),-1.38% and 6.19%
25,COC(=O)/C(C#N)=C/c1c(OC)ccc2ccccc12,-3.78%

row,Structure (SMILES),% Inhibition @ 10 uM
1,O=C(CCC(=O)n1ncc2ccc(Cl)cc21)NCc1cccnc1,5.39%
2,CC(C)Oc1ccc(CNC(=O)C2CCCN(S(=O)(=O)N3CCOCC3)C2)cc1 (stereo not shown),-3.16%
3,CC(Cc1ccc(F)cc1)N[C@H]1CCCCNC1=O (stereo partly shown),-4.75%
4,CCC1CCCCN1S(=O)(=O)c1ccc([N+](=O)[O-])cc1 (stereo not shown),-2.42%
5,COc1ccc(-c2c(C)oc3cc(O)cc(O)c3c2=O)cc1OC,2.31%
6,N#CC(/C=C/c1ccccc1)N1CCOCC1 (stereo not shown),-7.25%
7,O=S(=O)(NCC(c1ccccc1)n1cc(-c2ccccc2)nn1)c1ccc(Cl)cc1 (stereo not shown),6.96%
8,CCCCCCc1cc(C=O)c(O)cc1O,0.0345%
9,CCOc1ccc(C2=C/C(=C3/N=C(C)OC3=O)c3ccccc3O2)cc1,-3.33%
10,Cc1cccc(C)c1OCC(O)Cn1c[n+](C)c2ccccc21 (stereo not shown),-2.87%
11,NC1=NC(=O)/C(=C\c2ccc3ccccc3c2)S1,-6.67%
12,Cc1c(Cl)cccc1NC(=O)c1ccncc1,1.27%
13,C#CCn1cc(/C=C2\NC(=O)NC2=O)c2ccccc21,-1.47%
14,CC(C)c1ccc(/C=C(\C#N)c2nc(O)c3ccccc3n2)cc1,-4.93%
15,CC1CCCN(S(=O)(=O)c2ccc(F)c(C(=O)NC3CCCCCC3)c2)C1 (stereo not shown),-0.256%
16,O=[N+]([O-])c1ccc(Cl)cc1CN1CCCCCC1,-4.35%
17,COC(=O)c1ccccc1-c1ccc(/C=C2\C(=O)N(C)C(=O)C(C#N)=C2C)o1,3.8%
18,COc1ccc(-c2cc(C)no2)cc1S(=O)(=O)NC1CCCCCCC1,-6.86%
19,COc1ccc(CCn2c(=O)c3cccnc3n(Cc3ccccc3F)c2=O)cc1OC,-1.66%
20,CC(=O)Nc1ccc(NC(=O)c2ccc(CN3CCc4ccccc4C3)cc2)cc1,3.9%
21,O=C(NC1CCN(c2ncccn2)CC1)C1CCCN(c2cnccn2)C1 (stereo not shown),-4.71%
22,Cc1ccc(OCC(O)CNS(=O)(=O)c2ccccc2C(=O)O)cc1 (stereo not shown),-1.75%
23,CCCOc1ccc(C2C3=C(O)CCCC3=Nc3nn(-c4ccccc4)c(O)c32)cc1OC (stereo not shown),-5%
24,CCOC(=O)C1=C(C)N(CC(C)C)C(=O)/C1=C\c1ccc(Cl)c(Cl)c1,-1.6%
25,CCN1CCN(Cc2cc(Br)c(OC)cc2OC)CC1,-1.86%

row,Structure (SMILES),% Inhibition @ 10 uM
1,COc1ccccc1/C=C/c1[nH]c(=O)[nH]c(=O)c1[N+](=O)[O-],-3.35%
2,O=C(NCCc1ccsc1)c1ccc2c(Cl)c3c(nc2c1)CCCC3,-5.58%
3,CC(C)CCOc1ccc(OCC(=O)Nc2nc3ccccc3[nH]2)cc1,0.389%
4,CC(=O)Nc1ccc(NC(=O)CCc2ccc(S(=O)(=O)NC3CCCCC3)cc2)cc1,1.84%
5,O=C(c1c(F)cccc1F)N1CCN(c2ccccc2F)CC1,7.55%
6,COc1ccc(CC(=O)Nc2ccc(OC)cc2)cc1,-1.17%
7,CC(C)(C)NC(=O)COc1ccc(CNC23CC4CC(CC(C4)C2)C3)cc1,-9.53%
8,COc1ccc(C2NC(S)=NC3=C2CCc2cc(OC)ccc23)cc1 (stereo not shown),8.53%
9,O=C(/C=C\c1ccccc1)Nc1c(-c2cccs2)nc2ccccn12,-4.23%
10,O=C(O)COc1ccccc1/C=C1/SC(=O)N(CC(=O)N2CCc3ccccc3C2)C1=O,8.56%
11,N#Cc1c(NC(=S)NC(=O)/C=C/c2ccccc2)sc2c1CCCC2,-3.98%
12,CCSc1ncc(Cl)c(C(=O)NCCc2ccc(S(N)(=O)=O)cc2)n1,-2.85%
13,CC(C)c1ccc(OCc2ccc(C(=O)NCc3ccco3)o2)cc1,6.82%
14,CC(=O)NC(=O)CC(=O)c1ccccc1,0.986%
15,O=C(NCCC1=CCCCC1)c1cc(-c2ccccc2)[nH]n1,0.00226%
16,O=C(O)c1ccc2[nH]c(-c3cc4cc(Br)ccc4oc3=O)nc2c1,-0.617%
17,CCOC(=O)N1CCC2(CC1)C(C#N)=C(N)Oc1c2sc2nc(C)cc(C)c12,0.726%
18,CCCCn1c(=O)c(C#N)cc2c(=O)n3cc(C)ccc3nc21,1.12%
19,Cc1cc2oc(C(=O)N(Cc3sccc3C)C3CCS(=O)(=O)C3)c(C)c2cc1Cl (stereo not shown),5.29%
20,Cc1nn(CC(=O)NCCCN2CCC(Cc3ccccc3)CC2)c(=O)c2cccn12,-5.78%
21,COCC(=O)n1nc(-c2ccccc2)nc1NCc1ccccc1,2.31%
22,COc1ccc(CC(=O)N2CCN(c3ccccc3)CC2)cc1,0.135%
23,COc1ccc(-c2c(C)nn3c(NCCCc4ccccc4)cc(C)nc23)cc1OC,1.55%
24,Cc1ccc(NS(=O)(=O)c2cc(C(=O)O)ccc2C)cc1,2.43%
25,c1ccc(OCCn2c(C3CCCO3)nc3ccccc32)cc1 (stereo not shown),-2.99%
